Where a name gives a salt, the structure may show the parent alone. The list shows a part of the results. Single values are uncertain, as repeats are few or missing.

The assay has as its system OVCAR4. Nature of the assay: log2 surviving fraction (library drug vs vehicle, or drug + carboplatin vs carboplatin alone; relative to plate median); ovarian cancer lines: OVCAR4 is platinum-sensitive and Ov4Carbo platinum-resistant; higher = more cell survival. The conditions noted are these: library drug concentration 10 µM; 7 days; carboplatin co-treatment 0 µM.
Regarding `O=C(CCCN1CC=C(n2c(=O)[nH]c3ccccc32)CC1)c1ccc(F)cc1` [Droperidol], the log2 surviving fraction turned out to be 0.329.

For `CCOC(=O)C1=C(COCCN)NC(C)=C(C(=O)OC)C1c1ccccc1Cl` (stereo unspecified) [Amlodipine besylate (Norvasc)], the log2 surviving fraction is -2.23.

For the molecule `CC[N+](CC)(CC)CCOc1cccc(OCC[N+](CC)(CC)CC)c1OCC[N+](CC)(CC)CC` [Gallamine triethiodide (Flaxedil)], the log2 surviving fraction is 0.14.

For the molecule `CN(C)CCc1c[nH]c2ccc(Cn3cncn3)cc12` [Rizatriptan Benzoate (Maxalt)], the log2 surviving fraction was 1.09.

Regarding `CN(C)C(=N)NC(=N)N` [Metformin hydrochloride (Glucophage)], the log2 surviving fraction was -0.193.

Take `CC1(C)O[C@@H]2C[C@H]3[C@@H]4CCC5=CC(=O)C=C[C@]5(C)[C@H]4[C@@H](O)C[C@]3(C)[C@]2(C(=O)CO)O1` [Desonide]: the log2 surviving fraction is -2.77.

As for `O[C@@H]1CO[C@H]2[C@@H]1OC[C@@H]2O` [Isosorbide], the log2 surviving fraction was found to be 0.459.

Regarding `CC(=O)NS(=O)(=O)c1ccc(NC(=O)c2ccccc2C(=O)O)cc1` [Phthalylsulfacetamide], the log2 surviving fraction is -0.475.

For `Oc1ccc(OC2CCCCO2)cc1` (stereo unspecified) [Deoxyarbutin], the log2 surviving fraction is -2.02.

In the case of `O=P1(NCCCl)OCCCN1CCCl` (stereo unspecified) [Ifosfamide], the log2 surviving fraction was -0.209.

As to `CC[C@@H]1/C=C(\C)C[C@H](C)C[C@H](OC)[C@H]2O[C@@](O)(C(=O)C(=O)N3CCCC[C@H]3C(=O)O[C@H](/C(C)=C/[C@@H]3CC[C@H](Cl)[C@H](OC)C3)[C@H](C)[C@@H](O)CC1=O)[C@H](C)C[C@@H]2OC` [Pimecrolimus], the log2 surviving fraction is -1.91.
